Results from US6919424B2, “Binding peptides for carcinoembryonic antigen (CEA)” (Dyax Corp., priority 2000, dated 2005).
Values joined by “and” are separate entries in the source; they are usually repeats but may differ in a detail not shown here. Equal entries are not always repeated. At least one structure is not confirmed: it was looked up by name or label, or the drawing left a doubt. Bridge positions count the residues as written; N and C are the ends. Peptide text beside a SMILES is read from it. * marks the point of attachment. 5FAM = O=C1OC2(c3ccc(O)cc3Oc3cc(O)ccc32)c2ccc(C(=O)*)cc21

How the values were obtained:
NA3 = biological target: T1, NA3 (Homo sapiens, UniProt P06731); assay: Fluorescence anisotropy competition experiment, competitor peptide from Isolate 12-H12; type: binding; conditions: Table 10, NA3 target, competitor peptide from Isolate 12-H12 varied, replicate analyses listed
T1 construct: H6NA3, consisting of a hexahistidine leader and the N and A3 domains of CEA, was used
T1 sequence (P06731 35-144 limits assumed): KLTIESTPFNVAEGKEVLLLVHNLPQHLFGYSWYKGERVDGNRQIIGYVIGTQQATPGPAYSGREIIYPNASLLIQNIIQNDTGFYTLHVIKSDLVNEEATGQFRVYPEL
T1 sequence (P06731 501-588 limits assumed): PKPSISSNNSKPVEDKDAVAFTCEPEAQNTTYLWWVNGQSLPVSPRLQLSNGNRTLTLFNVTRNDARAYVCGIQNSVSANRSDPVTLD

H6NA3 [1] = biological target: T2, H6NA3 (Homo sapiens, UniProt P06731); assay: Fluorescence anisotropy direct binding to H6NA3 / NA3
T2 construct: H6NA3, consisting of a hexahistidine leader and the N and A3 domains of CEA, was used
T2 sequence (P06731 35-144 limits assumed): T1 sequence (P06731 35-144 limits assumed)
T2 sequence (P06731 501-588 limits assumed): T1 sequence (P06731 501-588 limits assumed)
Method: (§1) Each peptide was also provided with a C-terminal amide-functional linker useful for immobilizing peptides to various chromatographic substrates: -Ala18-Pro19-Gly20-Gly-Glu-Gly-Gly-Gly-Ser-Lys-CONH2 (SEQ ID NO:28). […] Aliquots of each peptide were fluorescently labeled using NHS-fluorescein reacted with the ε-amino side group of the C-terminal lysine.
Dissociation constants were determined using fluorescence anisotropy, through direct binding measurements and competition experiments. In direct binding assays, the concentration of the fluorescein-labeled peptide is held constant and the concentration of H6NA3 is varied. In the competition experiment, the concentration of the fluorescein-labeled peptide and the H6NA3 target are held constant and the concentration of a competitor (cT84.66, unlabeled) is varied. The change in anisotropy is fit to the appropriate equation via nonlinear regression to obtain the apparent Kd.
Aliquots of each peptide were fluorescently labeled using NHS-fluorescein reacted with the ε-amino side group of the C-terminal lysine.
Dissociation constants were determined using fluorescence anisotropy, through direct binding measurements (see Example 6).
as §1, with “Peptides including the binding domain of the CEA binder Isolates were synthesized by solid-phase synthesis. Each” for “Each”
(§2) Dissociation constants were determined using fluorescence anisotropy, through direct binding measurements to either NA-3 or CEA in PBS with 0.01% TWEEN 20. In direct binding assays, the concentration of the fluorescein-labeled peptide is held constant and the concentration of NA3 is varied. In the competition experiment, the concentration of the fluorescein-labeled peptide and the NA3 target are held constant and the concentration of competitor peptide (from Isolate 12-H12) is varied. The change in anisotropy is fit to the appropriate equation via nonlinear regression to obtain the apparent Kd. Isolate 304A-12-H12, previously isolated from Lib2 and assayed for binding, was analyzed in parallel as a control. Replicate analyses were run for certain binders and are reported to confirm accuracy and precision of measurements. KD standard error values are calculated from the nonlinear regression (SIGMAPLOT, SPSS Science, Chicago, Ill.).

CEA = biological target: T3, CEA (Homo sapiens, UniProt P06731); assay: Fluorescence anisotropy direct binding to CEA; conditions: Table 10; commercial CEA, PBS with 0.01% TWEEN 20
T3 construct: purchased
T3 sequence (P06731 35-676): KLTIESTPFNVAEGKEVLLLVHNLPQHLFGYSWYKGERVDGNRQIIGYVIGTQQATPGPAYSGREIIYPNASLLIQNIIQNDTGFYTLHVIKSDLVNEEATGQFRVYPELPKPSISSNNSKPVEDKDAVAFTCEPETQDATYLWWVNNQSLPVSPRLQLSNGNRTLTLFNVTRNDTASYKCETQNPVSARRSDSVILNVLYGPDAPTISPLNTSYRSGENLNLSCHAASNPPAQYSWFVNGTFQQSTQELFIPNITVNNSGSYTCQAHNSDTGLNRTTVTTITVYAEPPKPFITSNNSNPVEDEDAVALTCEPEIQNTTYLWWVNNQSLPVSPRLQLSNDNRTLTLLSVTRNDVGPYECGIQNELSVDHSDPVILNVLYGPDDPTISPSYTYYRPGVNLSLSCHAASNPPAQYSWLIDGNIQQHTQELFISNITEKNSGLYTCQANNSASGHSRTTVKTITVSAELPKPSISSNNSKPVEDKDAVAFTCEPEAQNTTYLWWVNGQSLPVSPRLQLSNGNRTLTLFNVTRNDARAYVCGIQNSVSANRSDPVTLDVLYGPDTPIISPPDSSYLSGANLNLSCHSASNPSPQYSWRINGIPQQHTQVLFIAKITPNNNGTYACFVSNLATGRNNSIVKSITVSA
Method: as §2

H6NA3 [2] = biological target: T2, H6NA3; assay: Fluorescence anisotropy competition experiment, competitor cT84.66; type: binding; conditions: Table 3; labeled peptide and H6NA3 constant, unlabeled cT84.66 varied; apparent Kd
[3] = Table 10, PBS with 0.01% TWEEN 20, replicate analyses listed, read-out: NA3 KD (μM) direct binding

SMILES	Kd (NA3)	Kd (NA3; listed as DX306) [µM]	Kd (H6NA3 [1]; Table 7, Lib2 isolate peptides, H6NA3, read-out: KD (μM) direct binding) [µM]	Kd (H6NA3 [1]; Table 10, PBS with 0.01% TWEEN 20, replicate analyses listed, listed as DX306, read-out: NA3 KD (μM) direct binding) [µM]	Kd (H6NA3 [1]; [3]) [µM]	Kd (CEA) [µM]	Kd (H6NA3 [1]; Table 3, fluorescein-labeled 27-mer peptide constant, H6NA3 varied, read-out: KD (μM) direct binding) [µM]	Kd (H6NA3 [2]) [µM]
CC(C)C[C@H](NC(=O)[C@@H](NC(=O)[C@H](CC(N)=O)NC(=O)[C@@H]1CSSC[C@H](NC(=O)[C@@H](NC(=O)[C@H](Cc2c[nH]c3ccccc23)NC(=O)[C@H](CC(=O)O)NC(=O)[C@@H](N)CO)C(C)C)C(=O)N[C@@H](CCC(=O)O)C(=O)N[C@@H](Cc2ccc(O)cc2)C(=O)N[C@@H](Cc2ccccc2)C(=O)N[C@@H](CCCCN)C(=O)N[C@@H](CC(N)=O)C(=O)N[C@@H](CCC(N)=O)C(=O)N[C@@H](Cc2c[nH]c3ccccc23)C(=O)N[C@@H](Cc2ccccc2)C(=O)N1)C(C)C)C(=O)N[C@@H](C)C(=O)N1CCC[C@H]1C(=O)NCC(=O)NCC(=O)N[C@@H](CCC(=O)O)C(=O)NCC(=O)NCC(=O)NCC(=O)N[C@@H](CO)C(=O)N[C@@H](CCCCNC(=O)c1ccc2c(c1)C(=O)OC21c2ccc(O)cc2Oc2cc(O)ccc21)C(N)=O [Isolate 304A-12-H12, DWVCEYFKNQWFCNVL]	0.34 ± 0.13 µM	0.24 ± 0.09	0.24 ± 0.03	0.22 ± 0.04	0.3 ± 0.07	3.7 ± 3.9		
CC(C)C[C@H](NC(=O)[C@H](CC(C)C)NC(=O)[C@H](CC(N)=O)NC(=O)[C@@H]1CSSC[C@H](NC(=O)[C@@H](NC(=O)[C@H](Cc2c[nH]c3ccccc23)NC(=O)[C@H](CC(=O)O)NC(=O)[C@@H](N)CO)C(C)C)C(=O)N[C@@H](CCC(=O)O)C(=O)N[C@@H](CC(N)=O)C(=O)N[C@@H](CCCCN)C(=O)N[C@@H](CCCCN)C(=O)N[C@@H](CC(=O)O)C(=O)N[C@@H](CCC(N)=O)C(=O)N[C@@H](Cc2c[nH]c3ccccc23)C(=O)N[C@@H]([C@@H](C)O)C(=O)N1)C(=O)N[C@@H](C)C(=O)N1CCC[C@H]1C(=O)NCC(=O)NCC(=O)N[C@@H](CCC(=O)O)C(=O)NCC(=O)NCC(=O)NCC(=O)N[C@@H](CO)C(=O)N[C@@H](CCCCNC(=O)c1ccc2c(c1)C(=O)OC21c2ccc(O)cc2Oc2cc(O)ccc21)C(N)=O [P-A07] (H-SDWVCENKKDQWTCNLLAPGGEGGGSK(5FAM)-NH2; disulfide 5-14; N-terminus assumed)							5.9	3.6
CC[C@H](C)[C@H](NC(=O)[C@H](CC(N)=O)NC(=O)[C@@H]1CSSC[C@H](NC(=O)[C@@H](NC(=O)[C@H](Cc2c[nH]c3ccccc23)NC(=O)[C@H](CC(=O)O)NC(=O)[C@@H](N)CO)C(C)C)C(=O)N[C@@H](CCC(=O)O)C(=O)N[C@@H](Cc2ccccc2)C(=O)N[C@@H](Cc2ccccc2)C(=O)N[C@@H](CCCCN)C(=O)N[C@@H](CC(=O)O)C(=O)N[C@@H](CCC(N)=O)C(=O)N[C@@H](Cc2c[nH]c3ccccc23)C(=O)N[C@@H](Cc2ccccc2)C(=O)N1)C(=O)N[C@@H](CC(C)C)C(=O)N[C@@H](C)C(=O)N1CCC[C@H]1C(=O)NCC(=O)NCC(=O)N[C@@H](CCC(=O)O)C(=O)NCC(=O)NCC(=O)NCC(=O)N[C@@H](CO)C(=O)N[C@@H](CCCCNC(=O)c1ccc2c(c1)C(=O)OC21c2ccc(O)cc2Oc2cc(O)ccc21)C(N)=O [Isolate 315A-18-E02] (H-SDWVCEFFKDQWFCNILAPGGEGGGSK(5FAM)-NH2; disulfide 5-14; N-terminus assumed)	0.31 µM and 0.29 µM and 0.22 µM and 0.14 µM				0.38 ± 0.13	2.6 ± 1.7		
CC[C@H](C)[C@@H]1NC(=O)[C@H](Cc2ccccc2)NC(=O)[C@H](CCC(=O)O)NC(=O)[C@@H](NC(=O)[C@@H](NC(=O)[C@H](Cc2c[nH]c3ccccc23)NC(=O)[C@H](CC(=O)O)NC(=O)[C@@H](N)CO)C(C)C)CSSC[C@@H](C(=O)N[C@@H](CC(N)=O)C(=O)N[C@H](C(=O)N[C@@H](CC(C)C)C(=O)N[C@@H](C)C(=O)N2CCC[C@H]2C(=O)NCC(=O)NCC(=O)N[C@@H](CCC(=O)O)C(=O)NCC(=O)NCC(=O)NCC(=O)N[C@@H](CO)C(=O)N[C@@H](CCCCNC(=O)c2ccc3c(c2)C(=O)OC32c3ccc(O)cc3Oc3cc(O)ccc32)C(N)=O)C(C)C)NC(=O)[C@H](Cc2ccccc2)NC(=O)[C@H](Cc2c[nH]c3ccccc23)NC(=O)[C@H](CCC(N)=O)NC(=O)[C@H](CO)NC(=O)[C@H](CCCCN)NC1=O [Isolate 315A-17-G08] (H-SDWVCEFIKSQWFCNVLAPGGEGGGSK(5FAM)-NH2; disulfide 5-14; N-terminus assumed)	0.16 µM				0.27 ± 0.07	1.6 ± 0.1		
